In the antibiotic and cytotoxicity screens of Wong et al. (2023):
Some of the results follow.

What was measured:
[1] = tested on: HSkMC (human skeletal muscle cells); experiment: cytotoxicity call (relative viability < 0.9); conditions: 10 µM
[2] = tested on: HepG2; experiment: cytotoxicity call (relative viability < 0.9); conditions: 10 µM
[3] = tested on: S. aureus RN4220; experiment: growth inhibition call (relative growth <= 0.2); conditions: 50 µM

Row | SMILES | cytotoxicity call [1] | cytotoxicity call [2] | growth inhibition call [3]
1 | COc1ccccc1-c1ccc2c(c1)O[C@@H](CN(C)S(=O)(=O)c1ccccc1)[C@@H](C)CN([C@@H](C)CO)S2(=O)=O | inactive | inactive | inactive
2 | Cc1ccc(S[C@]2(C(=O)NC3CC3)CC(=O)N(Cc3ccccc3C(F)(F)F)[C@@H]2c2ccc(CO)cc2I)cc1 | inactive | inactive | inactive
3 | Cc1noc(C)c1NC(=O)N(C)C[C@@H]1Oc2ccc(NS(=O)(=O)c3c(C)noc3C)cc2CC(=O)N([C@H](C)CO)C[C@H]1C | inactive | inactive | inactive
4 | C[C@H](CO)N1C[C@H](C)[C@@H](CN(C)C(=O)Nc2cccc3ccccc23)Oc2ccc(NS(=O)(=O)c3ccc(Cl)cc3)cc2CC1=O | inactive | inactive | inactive
5 | COCC(=O)N(C)C[C@H]1Oc2cc(C#Cc3cccnc3)ccc2S(=O)(=O)N([C@H](C)CO)C[C@H]1C | inactive | inactive | inactive
6 | C[C@@H]1CN([C@@H](C)CO)C(=O)Cc2cc(NC(=O)CCC(F)(F)F)ccc2O[C@@H]1CN(C)S(C)(=O)=O | inactive | inactive | inactive
7 | CC(C)NC(=O)Nc1ccc2c(c1)C(=O)N([C@H](C)CO)C[C@H](C)[C@H](CN(C)C(=O)NC1CCCCC1)O2 | inactive | inactive | inactive
8 | COc1cc(OC)c(C(C)=O)c(O)c1C | inactive | inactive | inactive
9 | Cc1noc(C)c1S(=O)(=O)Nc1ccc2c(c1)C(=O)N([C@H](C)CO)C[C@H](C)[C@@H](CN(C)S(=O)(=O)c1ccccc1)O2 | inactive | inactive | inactive
10 | COc1cccc(C#Cc2ccc([C@@H]3[C@@H](CO)N4C(=O)CN(S(=O)(=O)c5ccccc5C)C[C@@H]34)cc2)c1 | inactive | inactive | inactive
11 | C[C@H](CO)N1C[C@H](C)[C@@H](CN(C)S(=O)(=O)c2ccc(Cl)cc2)Oc2ccc(N(C)C)cc2C1=O | inactive | inactive | inactive
12 | CCc1nc2ccc(C(=O)N3CCN(C(=O)c4ccco4)CC3)cn2c1N(C=O)Cc1ccc(OC)cc1 | inactive | inactive | inactive
13 | Cc1cccc(N2C[C@@H](CN)OC2=O)c1 | inactive | inactive | inactive
14 | Cc1noc(C)c1S(=O)(=O)Nc1ccc2c(c1)CC(=O)N([C@H](C)CO)C[C@H](C)[C@@H](CN(C)S(=O)(=O)c1cccs1)O2 | inactive | inactive | inactive
15 | C[C@@H]1CN([C@H](C)CO)C(=O)c2cc(NS(=O)(=O)c3ccc(F)cc3)ccc2O[C@H]1CN(C)S(=O)(=O)c1cccs1 | inactive | inactive | inactive
16 | O=C(CCCCC(=O)N/N=C/[C@H](O)[C@@H](O)[C@H](O)[C@H](O)CO)NO | inactive | inactive | inactive
17 | Cc1noc(C)c1NC(=O)N(C)C[C@@H]1Oc2ncc(C#CCC(C)C)cc2C(=O)N([C@H](C)CO)C[C@H]1C | inactive | inactive | inactive
18 | CCn1ncc(NC(=O)Cn2ccc(C(=O)OC)n2)n1 | inactive | inactive | inactive
19 | CCN(CC)CCc1nc(-c2ccccc2)no1.O=C(O)CC(O)(CC(=O)O)C(=O)O | inactive | active | inactive
20 | C[C@H](CO)N1C[C@H](C)[C@@H](CN(C)CC2CC2)Oc2c(NS(=O)(=O)c3ccccc3)cccc2C1=O | inactive | inactive | inactive
21 | O=C(NS(=O)(=O)c1ccccc1)c1nnc[nH]1 | inactive | inactive | inactive
22 | O=C(C[C@H]1C[C@H]2c3cc(NC(=O)C4CCOCC4)ccc3O[C@H]2[C@H](CO)O1)NCc1ccc2c(c1)OCO2 | inactive | inactive | inactive
23 | C[C@@H]1CN([C@@H](C)CO)C(=O)c2cccc(NC(=O)Nc3ccc(C(F)(F)F)cc3)c2O[C@H]1CN(C)S(C)(=O)=O | inactive | inactive | inactive
24 | C[C@H]1CN([C@@H](C)CO)C(=O)c2cc(NC(=O)Nc3ccc(C(F)(F)F)cc3)ccc2O[C@@H]1CN(C)C(=O)Nc1ccc2c(c1)OCO2 | inactive | active | inactive
25 | Cc1ccc(S(=O)(=O)Nc2ccc3c(c2)C(=O)N([C@H](C)CO)C[C@@H](C)[C@H](CN(C)Cc2ccccc2)OCCCC[C@@H](C)O3)cc1 | inactive | inactive | inactive
26 | C[C@H](CO)N1C[C@H](C)[C@@H](CN(C)S(=O)(=O)c2ccccc2)Oc2c(NC(=O)C3CCOCC3)cccc2C1=O | inactive | inactive | inactive
27 | CC[C@@H](C)NCc1sccc1C | inactive | inactive | inactive
28 | CCS(=O)(=O)Nc1ccc2c(c1)/C(=C(/Nc1ccc(CN3CCCCC3)cc1)c1ccccc1)C(=O)N2 | active | active | inactive
29 | C[C@@H]1CCCCO[C@@H](CN(C)C(=O)Nc2ccc(C(F)(F)F)cc2)[C@@H](C)CN([C@H](C)CO)C(=O)c2cc(NS(C)(=O)=O)ccc2O1 | inactive | inactive | inactive
